Test results taken from article PMC10575725.
No constants are given. Whether binding was seen depends on the method and setting. Binding seen in cells or lysates may run through a third protein. For some of these results: Where a sequence is shown, tags or fusion partners need not be part of it.

By UniProt entry, the sequences of proteins in these tests, tags left out. Residues count along the entry.
UniProt Q96P20: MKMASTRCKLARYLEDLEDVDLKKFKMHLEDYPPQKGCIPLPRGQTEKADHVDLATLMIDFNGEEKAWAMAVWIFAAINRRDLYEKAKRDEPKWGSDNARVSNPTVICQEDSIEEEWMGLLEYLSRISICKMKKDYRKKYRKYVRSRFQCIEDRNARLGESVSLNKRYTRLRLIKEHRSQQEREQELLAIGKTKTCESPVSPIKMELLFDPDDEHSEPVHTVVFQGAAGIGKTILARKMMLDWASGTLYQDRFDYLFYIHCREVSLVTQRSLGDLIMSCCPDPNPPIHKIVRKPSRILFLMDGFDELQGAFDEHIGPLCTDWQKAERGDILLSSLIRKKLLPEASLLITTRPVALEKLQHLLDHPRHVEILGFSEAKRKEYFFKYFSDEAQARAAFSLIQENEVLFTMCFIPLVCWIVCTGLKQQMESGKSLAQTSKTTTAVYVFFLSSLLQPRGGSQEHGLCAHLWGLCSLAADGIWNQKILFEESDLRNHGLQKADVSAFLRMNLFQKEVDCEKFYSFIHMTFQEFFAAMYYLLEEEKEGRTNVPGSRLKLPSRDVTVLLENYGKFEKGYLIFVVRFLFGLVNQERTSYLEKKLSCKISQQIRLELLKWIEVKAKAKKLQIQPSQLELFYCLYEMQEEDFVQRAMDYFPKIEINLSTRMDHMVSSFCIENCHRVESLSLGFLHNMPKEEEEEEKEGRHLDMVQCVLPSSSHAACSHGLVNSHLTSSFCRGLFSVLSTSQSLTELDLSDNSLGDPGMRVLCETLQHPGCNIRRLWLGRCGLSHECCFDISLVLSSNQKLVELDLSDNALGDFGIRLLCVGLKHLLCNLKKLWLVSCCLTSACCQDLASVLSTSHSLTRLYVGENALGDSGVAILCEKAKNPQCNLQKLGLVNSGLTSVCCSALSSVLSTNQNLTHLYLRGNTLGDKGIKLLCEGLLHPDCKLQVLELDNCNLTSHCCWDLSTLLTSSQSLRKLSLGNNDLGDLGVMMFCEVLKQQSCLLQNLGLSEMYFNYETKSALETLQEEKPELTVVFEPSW
UniProt P05161, residues 1-157: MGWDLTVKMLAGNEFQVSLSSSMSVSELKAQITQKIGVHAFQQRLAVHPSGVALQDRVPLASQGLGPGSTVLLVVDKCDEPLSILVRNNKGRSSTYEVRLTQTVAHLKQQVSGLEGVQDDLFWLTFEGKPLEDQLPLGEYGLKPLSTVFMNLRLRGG
UniProt Q9Y4X5: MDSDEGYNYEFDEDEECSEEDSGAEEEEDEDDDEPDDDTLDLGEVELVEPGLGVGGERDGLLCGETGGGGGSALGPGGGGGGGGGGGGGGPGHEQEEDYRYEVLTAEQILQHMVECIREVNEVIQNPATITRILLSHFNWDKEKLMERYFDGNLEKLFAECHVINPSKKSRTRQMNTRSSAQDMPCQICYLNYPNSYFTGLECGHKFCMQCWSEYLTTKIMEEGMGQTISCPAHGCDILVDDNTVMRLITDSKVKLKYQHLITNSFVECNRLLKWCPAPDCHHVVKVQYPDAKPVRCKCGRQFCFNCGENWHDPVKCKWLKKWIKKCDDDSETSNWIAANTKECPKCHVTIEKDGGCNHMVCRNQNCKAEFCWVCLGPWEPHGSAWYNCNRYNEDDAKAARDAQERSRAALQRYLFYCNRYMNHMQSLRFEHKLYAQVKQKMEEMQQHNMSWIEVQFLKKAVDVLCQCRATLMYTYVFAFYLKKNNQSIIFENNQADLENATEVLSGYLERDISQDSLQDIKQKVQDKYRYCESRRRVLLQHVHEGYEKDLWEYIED
UniProt Q9ULZ3: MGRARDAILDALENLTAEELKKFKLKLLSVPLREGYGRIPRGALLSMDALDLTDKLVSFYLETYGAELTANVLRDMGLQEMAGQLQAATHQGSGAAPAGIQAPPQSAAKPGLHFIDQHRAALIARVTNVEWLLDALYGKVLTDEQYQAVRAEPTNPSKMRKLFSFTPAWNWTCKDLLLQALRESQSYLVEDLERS
UniProt Q3UP24: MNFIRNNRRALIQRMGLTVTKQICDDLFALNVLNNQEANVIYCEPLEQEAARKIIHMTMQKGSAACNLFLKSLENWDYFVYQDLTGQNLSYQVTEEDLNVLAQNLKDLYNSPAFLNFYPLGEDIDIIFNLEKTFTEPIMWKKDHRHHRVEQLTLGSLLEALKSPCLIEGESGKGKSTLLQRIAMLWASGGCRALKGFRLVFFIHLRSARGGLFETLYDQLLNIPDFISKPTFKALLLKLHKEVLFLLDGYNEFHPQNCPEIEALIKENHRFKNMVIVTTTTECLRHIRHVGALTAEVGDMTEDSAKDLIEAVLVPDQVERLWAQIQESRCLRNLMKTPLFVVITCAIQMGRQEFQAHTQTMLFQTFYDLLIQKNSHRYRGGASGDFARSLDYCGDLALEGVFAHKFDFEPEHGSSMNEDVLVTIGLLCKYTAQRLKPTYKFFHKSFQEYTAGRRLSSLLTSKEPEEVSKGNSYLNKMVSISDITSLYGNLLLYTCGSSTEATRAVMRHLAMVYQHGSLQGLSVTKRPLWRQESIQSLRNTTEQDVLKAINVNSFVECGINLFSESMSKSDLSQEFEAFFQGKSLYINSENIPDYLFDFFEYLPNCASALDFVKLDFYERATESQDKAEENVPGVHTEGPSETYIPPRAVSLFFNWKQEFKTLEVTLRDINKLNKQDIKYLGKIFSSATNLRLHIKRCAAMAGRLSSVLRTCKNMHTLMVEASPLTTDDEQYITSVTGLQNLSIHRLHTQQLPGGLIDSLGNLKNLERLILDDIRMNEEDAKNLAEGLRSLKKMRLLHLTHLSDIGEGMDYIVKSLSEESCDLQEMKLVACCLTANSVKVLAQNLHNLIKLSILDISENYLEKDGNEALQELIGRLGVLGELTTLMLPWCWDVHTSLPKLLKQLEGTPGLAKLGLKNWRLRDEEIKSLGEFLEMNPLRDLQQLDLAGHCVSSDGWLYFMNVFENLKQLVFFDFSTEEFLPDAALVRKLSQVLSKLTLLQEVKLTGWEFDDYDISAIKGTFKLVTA
UniProt Q8TDX7: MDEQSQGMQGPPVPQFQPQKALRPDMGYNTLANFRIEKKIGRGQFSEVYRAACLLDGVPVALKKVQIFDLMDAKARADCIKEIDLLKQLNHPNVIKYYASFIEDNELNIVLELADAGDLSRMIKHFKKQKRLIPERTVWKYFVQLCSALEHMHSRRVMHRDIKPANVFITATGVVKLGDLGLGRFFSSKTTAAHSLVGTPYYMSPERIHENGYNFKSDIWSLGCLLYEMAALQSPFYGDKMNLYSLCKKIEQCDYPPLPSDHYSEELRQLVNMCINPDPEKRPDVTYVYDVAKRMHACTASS
UniProt Q9ES74: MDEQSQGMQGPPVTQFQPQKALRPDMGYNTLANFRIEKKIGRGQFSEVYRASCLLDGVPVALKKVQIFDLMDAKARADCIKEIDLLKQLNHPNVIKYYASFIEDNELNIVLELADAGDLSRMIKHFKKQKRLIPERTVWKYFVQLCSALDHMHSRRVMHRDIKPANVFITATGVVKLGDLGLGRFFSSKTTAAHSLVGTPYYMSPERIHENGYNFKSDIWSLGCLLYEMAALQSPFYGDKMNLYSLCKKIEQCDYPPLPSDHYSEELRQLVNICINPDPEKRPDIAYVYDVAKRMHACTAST
UniProt Q9NPP4: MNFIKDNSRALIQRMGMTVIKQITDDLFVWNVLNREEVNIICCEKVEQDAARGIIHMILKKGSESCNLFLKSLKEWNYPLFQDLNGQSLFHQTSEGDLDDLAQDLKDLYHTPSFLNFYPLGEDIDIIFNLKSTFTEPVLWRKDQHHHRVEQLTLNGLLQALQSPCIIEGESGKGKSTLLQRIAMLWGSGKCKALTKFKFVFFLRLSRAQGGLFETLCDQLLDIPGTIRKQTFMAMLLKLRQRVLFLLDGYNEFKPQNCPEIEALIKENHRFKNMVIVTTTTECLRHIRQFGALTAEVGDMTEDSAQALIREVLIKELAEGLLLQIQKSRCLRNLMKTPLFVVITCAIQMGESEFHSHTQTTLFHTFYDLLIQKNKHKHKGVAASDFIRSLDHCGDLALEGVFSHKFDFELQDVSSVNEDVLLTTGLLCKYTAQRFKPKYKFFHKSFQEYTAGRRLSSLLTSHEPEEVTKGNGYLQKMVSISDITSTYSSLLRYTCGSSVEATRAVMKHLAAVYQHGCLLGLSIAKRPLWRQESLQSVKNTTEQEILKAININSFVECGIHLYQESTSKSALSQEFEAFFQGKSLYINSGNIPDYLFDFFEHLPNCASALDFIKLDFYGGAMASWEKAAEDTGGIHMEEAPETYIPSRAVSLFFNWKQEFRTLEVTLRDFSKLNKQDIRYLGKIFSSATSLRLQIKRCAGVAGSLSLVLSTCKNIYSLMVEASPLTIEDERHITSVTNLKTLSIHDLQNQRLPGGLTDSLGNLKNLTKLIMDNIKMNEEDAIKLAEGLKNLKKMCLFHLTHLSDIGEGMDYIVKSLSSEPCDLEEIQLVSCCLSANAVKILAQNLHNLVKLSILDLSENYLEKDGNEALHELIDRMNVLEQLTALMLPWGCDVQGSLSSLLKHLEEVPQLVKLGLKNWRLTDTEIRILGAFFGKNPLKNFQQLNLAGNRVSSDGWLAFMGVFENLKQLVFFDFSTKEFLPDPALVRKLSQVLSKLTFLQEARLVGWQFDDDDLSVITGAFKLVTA
UniProt P29466: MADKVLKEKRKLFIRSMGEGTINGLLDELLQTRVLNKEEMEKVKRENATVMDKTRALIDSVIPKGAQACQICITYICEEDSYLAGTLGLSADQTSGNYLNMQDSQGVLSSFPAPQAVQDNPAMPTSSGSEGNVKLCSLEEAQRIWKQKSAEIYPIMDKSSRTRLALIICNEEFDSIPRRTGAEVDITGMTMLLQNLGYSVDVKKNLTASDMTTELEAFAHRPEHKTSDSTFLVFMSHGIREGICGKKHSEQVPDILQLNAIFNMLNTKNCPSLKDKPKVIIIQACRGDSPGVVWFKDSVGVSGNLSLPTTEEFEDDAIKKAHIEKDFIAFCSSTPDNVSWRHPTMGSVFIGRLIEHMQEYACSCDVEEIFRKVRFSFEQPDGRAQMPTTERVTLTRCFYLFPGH

How the values were obtained:
[1] = molecular target: Myc-tagged human NLRP3 (human) (UniProt Q96P20); test: co-IP; HEK293T cells transfected with the indicated plasmids; IP buffer 1.0% NP-40, 50 mM Tris-HCl pH 7.4, 50 mM EDTA, 150 mM NaCl; protein G agarose with specific antibodies overnight
[2] = molecular target: T1, HERC5, endogenous, THP-1 cells (human (endogenous in THP-1)) (UniProt Q9UII4); test: co-IP; endogenous proteins in THP-1 cells, LPS-stimulated or LPS-primed and ATP-activated; IP buffer 1.0% NP-40, 50 mM Tris-HCl pH 7.4, 50 mM EDTA, 150 mM NaCl
T1 sequence: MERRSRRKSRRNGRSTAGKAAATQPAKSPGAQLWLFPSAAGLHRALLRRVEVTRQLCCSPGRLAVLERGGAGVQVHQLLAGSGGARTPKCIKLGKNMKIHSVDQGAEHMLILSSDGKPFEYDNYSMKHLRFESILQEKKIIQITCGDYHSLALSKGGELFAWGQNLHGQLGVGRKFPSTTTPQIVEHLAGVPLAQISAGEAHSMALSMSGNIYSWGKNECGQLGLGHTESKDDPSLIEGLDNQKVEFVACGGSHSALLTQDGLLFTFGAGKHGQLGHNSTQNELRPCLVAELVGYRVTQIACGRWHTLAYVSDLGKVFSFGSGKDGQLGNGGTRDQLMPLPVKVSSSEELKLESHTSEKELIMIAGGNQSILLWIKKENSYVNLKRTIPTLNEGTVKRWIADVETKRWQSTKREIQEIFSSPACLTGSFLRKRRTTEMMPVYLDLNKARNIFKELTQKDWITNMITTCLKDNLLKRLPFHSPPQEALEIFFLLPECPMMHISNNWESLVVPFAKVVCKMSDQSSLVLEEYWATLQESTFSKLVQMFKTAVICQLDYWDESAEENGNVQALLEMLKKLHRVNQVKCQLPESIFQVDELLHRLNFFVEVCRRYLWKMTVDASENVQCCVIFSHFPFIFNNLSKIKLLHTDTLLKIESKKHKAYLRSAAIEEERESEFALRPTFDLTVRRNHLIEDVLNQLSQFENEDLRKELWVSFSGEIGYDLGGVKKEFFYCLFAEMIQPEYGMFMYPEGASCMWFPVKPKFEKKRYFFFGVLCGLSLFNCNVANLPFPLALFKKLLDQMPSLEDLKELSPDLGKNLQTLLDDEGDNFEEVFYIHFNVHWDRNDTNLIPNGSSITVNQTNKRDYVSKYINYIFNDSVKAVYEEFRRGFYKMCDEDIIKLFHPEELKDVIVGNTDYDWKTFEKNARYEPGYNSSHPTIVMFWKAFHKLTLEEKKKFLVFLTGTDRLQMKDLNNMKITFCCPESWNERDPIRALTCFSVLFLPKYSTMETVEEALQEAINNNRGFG

[3] = molecular target: T2, HERC6 (HECT domain- and RCC1-like domain-containing protein 6), endogenous, mouse peritoneal macrophages (mouse (endogenous in peritoneal macrophages)) (UniProt F2Z461); test: co-IP; endogenous proteins in mouse peritoneal macrophages, LPS-stimulated or LPS-primed and ATP-activated; IP buffer 1.0% NP-40, 50 mM Tris-HCl pH 7.4, 50 mM EDTA, 150 mM NaCl
T2 sequence: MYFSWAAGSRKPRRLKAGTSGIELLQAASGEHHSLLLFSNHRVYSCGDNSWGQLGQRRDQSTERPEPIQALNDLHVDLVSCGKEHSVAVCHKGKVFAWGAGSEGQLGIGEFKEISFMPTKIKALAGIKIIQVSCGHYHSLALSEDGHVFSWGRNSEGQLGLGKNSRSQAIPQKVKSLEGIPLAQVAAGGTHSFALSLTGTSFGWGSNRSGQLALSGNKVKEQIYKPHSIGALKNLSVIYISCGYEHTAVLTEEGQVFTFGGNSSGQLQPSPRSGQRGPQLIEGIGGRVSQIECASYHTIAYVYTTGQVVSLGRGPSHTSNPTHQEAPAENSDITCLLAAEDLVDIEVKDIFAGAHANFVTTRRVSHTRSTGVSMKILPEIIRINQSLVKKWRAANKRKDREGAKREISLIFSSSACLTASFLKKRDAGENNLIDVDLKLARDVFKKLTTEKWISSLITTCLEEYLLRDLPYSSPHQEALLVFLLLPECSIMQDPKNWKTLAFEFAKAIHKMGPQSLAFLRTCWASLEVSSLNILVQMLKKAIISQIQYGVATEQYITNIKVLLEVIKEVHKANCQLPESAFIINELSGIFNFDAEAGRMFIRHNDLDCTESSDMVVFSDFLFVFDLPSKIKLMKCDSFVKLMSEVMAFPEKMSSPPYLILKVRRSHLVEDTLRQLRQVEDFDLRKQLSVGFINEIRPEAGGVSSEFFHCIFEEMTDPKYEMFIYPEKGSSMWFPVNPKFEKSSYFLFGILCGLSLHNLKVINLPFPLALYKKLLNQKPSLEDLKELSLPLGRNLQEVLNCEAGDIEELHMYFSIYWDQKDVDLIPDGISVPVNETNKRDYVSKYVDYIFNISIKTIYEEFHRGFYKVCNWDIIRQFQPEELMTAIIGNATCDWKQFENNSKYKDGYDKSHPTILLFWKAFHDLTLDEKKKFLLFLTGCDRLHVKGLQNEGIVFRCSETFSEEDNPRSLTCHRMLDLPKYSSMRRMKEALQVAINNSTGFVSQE

[4] = molecular target: T3, FLAG-tagged human HERC5 (human) (UniProt Q9UII4); test: co-IP; HEK293T cells transfected with the indicated plasmids; IP buffer 1.0% NP-40, 50 mM Tris-HCl pH 7.4, 50 mM EDTA, 150 mM NaCl; protein G agarose with specific antibodies overnight
T3 sequence: T1 sequence

“HA-tagged human ISG15 (from UniProt P05161 1-157)” was tested, and the binding [1] was “no binding”.
In the case of “FLAG-tagged human ARIH1 (from UniProt Q9Y4X5 1-557) (enzyme)”, the binding [1] is reported as “no binding”.
For “ASC, endogenous, THP-1 cells (from UniProt Q9ULZ3 1-195)”, the binding [2] was “no binding”.
In the case of “NLRC4, endogenous, mouse peritoneal macrophages (from UniProt Q3UP24 1-1024)”, the binding [3] is reported as “no binding”.
“NEK7, endogenous, THP-1 cells (from UniProt Q8TDX7 1-302) (enzyme)” was tested, and the binding [2] was “no binding”.
In the case of “NEK7, endogenous, mouse peritoneal macrophages (from UniProt Q9ES74 1-302) (enzyme)”, the binding [3] is reported as “no binding”.
With “NLRC4, endogenous, THP-1 cells (from UniProt Q9NPP4 1-1024)” the binding [2] was “no binding”.
For “CASP1, endogenous, THP-1 cells (from UniProt P29466 1-404) (enzyme)”, the binding [2] was “no binding”.
In the case of “Myc-tagged human ASC (from UniProt Q9ULZ3 1-195)”, the binding [4] is reported as “no binding”.
For “HA-tagged human caspase-1 (from UniProt P29466 1-404) (enzyme)”, the binding [4] was “no binding”.
